Hit rate of the full screen: of about 48,000 compounds, about 550 (1.1%) were called active. Inconclusive results (about 4%) are left out. No stated cut-off is given here; in the data, active means potency below about 15 µM; inconclusive means mostly about 16 µM to 33 µM; inactive means weaker than that. This is one part of the list.
The compounds below were run against Lysosomal acid glucosylceramidase (Homo sapiens) (UniProt P04062) (assay: Glucocerebrosidase). Details: purified enzyme, resorufin glucoside fluorescence (screen aimed at inhibitors), 20 min.
Outline: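 Compounds titrated against 0.2 nM normal enzyme, 30 uM resorufin beta-D-glucopyranoside substrate, citrate/phosphate buffer with taurocholate and tween-20, pH 5.9. Reaction ran 20 min at room temperature; fluorescence (Ex 548/Em 600) gave AC50.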
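Further: the screen sought inhibitors.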
Potency means the concentration at half of the fitted maximal effect.

Sequence of UniProt P04062 (P04062 whole entry, looked up): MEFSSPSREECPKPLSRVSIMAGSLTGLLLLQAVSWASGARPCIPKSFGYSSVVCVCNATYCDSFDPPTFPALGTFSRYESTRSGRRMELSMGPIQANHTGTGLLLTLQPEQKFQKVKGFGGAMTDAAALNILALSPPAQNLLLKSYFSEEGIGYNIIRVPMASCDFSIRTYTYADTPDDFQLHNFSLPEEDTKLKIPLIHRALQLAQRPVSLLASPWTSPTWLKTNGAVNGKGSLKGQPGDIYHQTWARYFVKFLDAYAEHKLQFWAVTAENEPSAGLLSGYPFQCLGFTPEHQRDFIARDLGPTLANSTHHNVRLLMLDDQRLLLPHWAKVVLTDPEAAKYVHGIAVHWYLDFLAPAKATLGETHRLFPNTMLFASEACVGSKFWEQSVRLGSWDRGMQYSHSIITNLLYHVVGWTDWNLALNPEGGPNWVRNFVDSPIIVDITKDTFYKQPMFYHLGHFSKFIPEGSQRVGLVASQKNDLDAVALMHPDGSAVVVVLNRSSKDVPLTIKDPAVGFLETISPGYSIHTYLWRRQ

SMILES	Potency
Cc1ccc(C(C#N)N2CCOCC2)cc1 (stereo not drawn)	inactive: > 76.9 µM
O=C(COc1ccc2c(c1)CCC2)N1CCc2ccccc21	inactive: > 76.9 µM
CC(SCC(=O)Nc1ccc(S(=O)(=O)N2CCCCC2)cc1)C(=O)O (stereo not drawn)	inactive: > 76.9 µM
CCOC(=O)c1ccc(Nc2nnc3nc(C)cc(C)n23)cc1	inactive: > 76.9 µM
O=C1N(CN2CCC3(CC2)OCCO3)c2ccccc2C12OCCCO2	inactive: > 76.9 µM
CCn1c(SCC(=O)Nc2cccc(NC(C)=O)c2)nnc1C(C)C	inactive: > 76.9 µM
CCc1ccccc1N1C[C@@]23C=C[C@@H](O2)C(C(=O)OCC(C)C)[C@H]3C1=O (stereo partly drawn)	inactive: > 76.9 µM
O=C(NCCc1ccccn1)c1n[nH]c(=O)c2ccccc12	inactive: > 76.9 µM
Nn1c(-c2ccccn2)nnc1-c1ccccn1	inactive: > 76.9 µM
CC1CCCC(N2C(=O)NC(NC(=O)c3ccco3)(C(F)(F)F)C2=O)C1C (stereo not drawn)	inactive: > 76.9 µM
CCOc1ccc(NC(=O)CSc2nccn2C)cc1	inactive: > 76.9 µM
Cc1cc(C)nc(SCc2nnc(SCC#N)n2-c2cccc(Cl)c2)n1	inactive: > 76.9 µM
Cc1onc(-c2c(F)cccc2Cl)c1C(=O)OCC(=O)Nc1c(C)n(C)n(-c2ccccc2)c1=O	inactive: > 76.9 µM
CCN1C(=O)c2cccc3c(S(=O)(=O)Nc4nc(C)cs4)ccc1c23	inactive: > 76.9 µM
Cc1ccc2c(CC(=O)NCc3ccc4c(c3)OCO4)coc2c1	inactive: > 76.9 µM
Cc1ccc(C(=O)NC2CCS(=O)(=O)C2)cc1S(=O)(=O)N1CCOCC1 (stereo not drawn)	inactive: > 76.9 µM
CCN(Cc1cc2cc(C)ccc2[nH]c1=O)S(=O)(=O)c1ccccc1	inactive: > 76.9 µM
Cc1nc2ccccc2c(=O)n1C1CCCCCC1	inactive: > 76.9 µM
O=C(CN(CCCN1CCOCC1)C(=O)Cn1nnc(-c2ccc(F)cc2)n1)NC1CCCCC1	active: 3.96 µM
O=S(=O)(N1CCOCC1)n1nnc2ccccc21	inactive: > 76.9 µM

SMILES	Potency
Cn1c(=O)c2ncn(CC(=O)NCCOc3ccc(C(C)(C)C)cc3)c2n(C)c1=O	inactive: > 76.9 µM
COC(=O)C(CCCCN1C(=O)C2C3C=CC(C3)C2C1=O)N1C(=O)C2C3C=CC(C3)C2C1=O (stereo not drawn)	inactive: > 76.9 µM
Cc1nn(C)c(C)c1S(=O)(=O)NC1CCCC1	inactive: > 76.9 µM
CCOC(=O)CSC1=C(C#N)C(c2ccccc2OCC)C(C#N)C(=O)N1 (stereo not drawn)	inactive: > 76.9 µM
Cc1ccc2nc(CSc3nnc(Cc4cccs4)n3C3CCCCC3)cc(=O)n2c1	inactive: > 76.9 µM
O=C(CSc1nc2ccccc2n1CC(=O)NCc1ccccc1)NCc1ccco1	inactive: > 76.9 µM
COc1ccc(OC)c(S(=O)(=O)Nc2ccc(O)c(Sc3ncn[nH]3)c2)c1	inactive: > 76.9 µM
C=CCNC(=O)C1CCCN(S(C)(=O)=O)C1 (stereo not drawn)	inactive: > 76.9 µM
O=C(Nc1ccc(F)cc1)C1CCCCC1	inactive: > 76.9 µM
Cc1nc(C)c(C(=O)C2=C(O)C(=O)N(CCN3CCOCC3)C2c2ccco2)s1 (stereo not drawn)	inactive: > 76.9 µM
CCOc1ccc(S(=O)(=O)Nc2ccc(S(=O)(=O)N3CCOCC3)cc2)cc1	inactive: > 76.9 µM
Cc1ccc(CS(=O)(=O)CCC(=O)NCCN2CCCC2)cc1	inactive: > 76.9 µM
CCOC(=O)c1ccc(NC(=O)CC2C(=O)N(c3cccc(OC)c3)C(=O)N2CCOC)cc1 (stereo not drawn)	inactive: > 76.9 µM
CCS(=O)(=O)n1nc(-c2ccccc2)nc1NCc1ccco1	inactive: > 76.9 µM
Cc1cc(=O)n2nc(-c3ccccc3)sc2c1C#N	inactive: > 76.9 µM
Cc1nc2c(c(=O)n1CCC(C)C)c1nc3ccccc3nc1n2Cc1ccc2c(c1)OCO2	inactive: > 76.9 µM
COC(=O)C1=C(C)NC(C)=C(C(=O)OC)C1C(=O)OC1CCCCC1=O (stereo not drawn)	inactive: > 76.9 µM
COc1ccc(-c2nn3cnnc3s2)cc1OC	inactive: > 76.9 µM
Cc1c(C(=O)Nc2cnccn2)oc2ccccc12	inactive: > 76.9 µM
CC1Cc2ccccc2N1C(=O)Cn1nnc(-c2ccccc2NC(=O)C2CCC2)n1 (stereo not drawn)	inactive

SMILES	Potency
CCOc1ccc(-c2noc(CCC(=O)NC)n2)cc1OCC	inactive: > 76.9 µM
O=C(O)C1C2C=CC(C2)C1C(=O)Nc1ccc(C(=O)N2CCCCC2)cc1 (stereo not drawn)	inactive: > 76.9 µM
CCN1C(=O)CC(N2CCC(Nc3ccc(OC)cc3)CC2)C1=O (stereo not drawn)	inactive: > 76.9 µM
CCC(C)[C@H](NC(=O)Nc1ccc2c(c1)OCCO2)C(=O)O (stereo partly drawn)	inactive: > 76.9 µM
Brc1ccc(CSc2nnc(Cc3c[nH]c4ccccc34)o2)cc1	inactive: > 76.9 µM
COc1ccccc1-c1noc(-c2ccco2)n1	inactive: > 76.9 µM
O=C(Cn1nc(-c2cccc(Cl)c2)ccc1=O)Nc1cccnc1	inactive: > 76.9 µM
Cc1nc2nc(SCC(=O)NCc3ccco3)nn2c(C)c1Cc1ccccc1	inactive: > 76.9 µM
c1ccc2c3c([nH]c2c1)-c1[nH]ncc1CC3	inactive: > 76.9 µM
CC1CCCC(C)N1C(=O)CSc1nnc(C2CCCCC2)o1 (stereo not drawn)	inactive: > 76.9 µM
O=C(Nc1ccncc1)c1cncc(Br)c1	inactive
CN(c1ccc(C(=O)NCc2ccncc2)cc1)S(C)(=O)=O	inactive: > 76.9 µM
CCCCCCn1c(SCCCC)nc2c1c(=O)[nH]c(=O)n2C	inactive: > 76.9 µM
CCN(C(=O)CN1CCN(C)CC1)c1cccc2ccccc12	inactive: > 76.9 µM
CCCOc1cccc(C2/C(=C(/O)c3ccncc3)C(=O)C(=O)N2CCCN(C)C)c1 (stereo not drawn)	inactive: > 76.9 µM
COC(=O)CSc1nnc(CNC(=O)c2cccs2)n1-c1cccc(C)c1	inactive: > 76.9 µM
CCN(CC)CCOc1ncnc2c1oc1ccccc12	inactive: > 76.9 µM
CCN(c1ccc(OC)cc1)S(=O)(=O)c1ccc2c(c1)CCN2C(=O)CCC(=O)O	inactive: > 76.9 µM
